Assay results published in PubChem BioAssay AID1345082 (National Center for Advancing Translational Sciences (NCATS), 2018).
Among all 94,000 compounds or so, about 4,000 (4.3%) were called active. Inconclusive means that the source gave no clear call. Such entries were picked first, then a sample of the others. Calls follow the shape of the dose curve; as a rule, active = well fitted inhibition curve with a large enough effect; inconclusive = small, poorly fitted or top-dose-only effect; inactive = no such curve, though single readings can be large or run the other way. Potencies beside an inconclusive call are fits to weak or partial responses and may not hold up.
% is scaled to controls: 0 for no effect and ±100 for the full control effect; potency is read from the fitted curve at half-maximal effect; tags tell the direction and shape of the fitted curve.

Test: Cytotoxic Profiling in NIH 3T3 Cell Line of Diverse Libraries Using Quantitative High-Throughput Screening; also: nearly all actives have a fitted effect of over 55% in size
Conditions: NIH 3T3 viability, CellTiter-Glo ATP luminescence, 48-72 h; activity change, negative = cytotoxicity: at 96.7 µM (top of the series) unless noted; series mostly up to 96.7 µM
Summary of the method: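 Cytotoxicity was measured by CellTiter-Glo ATP luminescence after 48 or 72 h compound exposure at 37 °C. Mouse NIH 3T3 fibroblasts were seeded at 400 cells/well and dosed by 23 nL pin transfer.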
With COc1cccc(S(=O)(=O)N2C[C@@H](Oc3cccnc3)C[C@H]2C(=O)NC2CC2)c1 the “outcome” value was “inactive”. In the case of C=CCN(C)C(=O)[C@@H]1Cc2cn(Cc3nccn3C)c3cccc(c23)[C@H](CC(C)C)N1, the Potency is reported as inconclusive: 89.1 µM [inhibitor, partial curve]. In the case of CC(C)CCN1CCC2(C1)C(=NC1CCCCC1)NC(=O)N2c1cc(F)cc(F)c1 (stereo unspecified), the Potency is reported as active: 35.5 µM. For CC(=O)NC1(C)CN(Cc2ccc(-c3ccc(Oc4ccccc4)cc3)s2)C1, the Potency was active: 28.2 µM. With CC(C)CN1C(=O)COC[C@@H]1[C@H](O)c1ccc(NC(=O)COc2ccccc2)cc1 the “activity change, negative = cytotoxicity” value was inactive: -12.3% [at 138 µM]. For O=c1[nH]c(N2CCOCC2)nc2c1CCN(Cc1ccc(F)cc1F)CC2, the “activity change, negative = cytotoxicity” value was inactive: -18.5%. In the case of COc1ccc(C(=O)N2CCC(N3CC4CC(C3)[C@H]3CCCC(=O)N3C4)CC2)cc1 (stereo partly specified), the “activity change, negative = cytotoxicity” value is reported as inactive: 0.346%. In the case of COc1ccc(OCC(O)CN2CCC(O)CC2)c(CNCC2(O)CCCCC2)c1 (stereo unspecified), the “activity change, negative = cytotoxicity” value is reported as inactive: -20.3%. For Cc1cc(-c2cc3c(cn2)CN(Cc2cccs2)CCN3)ccn1, the Potency was inconclusive: 56.2 µM [inhibitor, partial curve, poor fit]. In the case of COc1ccc(CN2C(=O)CO[C@H]3CN(C(=O)C4CC4)C[C@H]32)cc1, the “outcome” value is reported as “inactive [at 174 µM]”. With c1ccc(-c2ccc3ncc(Nc4cccnc4)n3n2)cc1 the Potency was inconclusive: 70.8 µM [inhibitor, partial curve]. For COc1ccccc1Cn1c(=O)c(C(=O)N2CCC(c3ccccc3)CC2)nc2cccnc21, the Potency was inconclusive: 44.7 µM [inhibitor, partial curve, poor fit]. With O=C(NCC1CC1)c1cn2ccnc(-c3ccccc3)c2n1 the Potency was inconclusive: 70.8 µM [inhibitor, single point]. With Cc1cc(C)cc(NC(=O)Cn2c(-c3ccccc3)nc(C)c(CCO)c2=O)c1 the Potency was inconclusive: 44.7 µM [inhibitor, partial curve, poor fit]. In the case of O=C(NCCN1CCCC1)c1ccc(-c2ccc(N3CCSCC3)nc2)cc1, the Potency is reported as inconclusive: 50.1 µM [inhibitor, partial curve, poor fit]. With N#Cc1ccc(NCc2cc3n(n2)CCCN(C2CCCCC2)C3)nc1 the “activity change, negative = cytotoxicity” value was inactive: -17.7%. In the case of O=C(NC1CCN(c2cc(-c3ccc(F)cc3)[nH]n2)C1)c1cc(Cl)ccc1F (stereo unspecified), the Potency is reported as active: 35.5 µM. For Cc1ccccc1C(=O)N1CCN(c2ccc3nnc(-c4ccccc4)n3n2)CC1, the Potency was inconclusive: 11.2 µM [inhibitor, partial curve, poor fit]. With CO[C@H]1C(=O)N(C)C2(CCN(C(=O)C3CCCCC3)CC2)[C@@H]1C(=O)N(C)c1ccccc1 the Potency was inconclusive: 79.4 µM [inhibitor, single point]. For CC(C)Oc1ccc2c(NC(=O)Cn3cccnc3=O)nn(CC(F)(F)F)c2c1, the Potency was inconclusive: 56.2 µM [inhibitor, partial curve, poor fit]. With O=C(C1CCC1)N1CCOc2ccc(CN3CCc4ccccc4C3)cc2C1 the Potency was inconclusive: 39.8 µM [inhibitor, partial curve]. For COCCn1ccc2c(C3=CCOCC3)nc(-c3ccc4cn[nH]c4c3)cc21, the Potency was inconclusive: 10 µM [inhibitor, full curve, poor fit]. With Cc1nc2cnccn2c1C(=O)NCc1ccccc1 the Potency was inconclusive: 112 µM [inhibitor, partial curve, poor fit]. In the case of CC(=O)Nc1cccc(-c2ccc(COc3ccc4c(cnn4CCC(=O)O)c3)cc2)c1, the Potency is reported as inconclusive: 89.1 µM [inhibitor, partial curve, poor fit]. With O=C1COc2ccc(-c3cn[nH]c3)nc2CN1Cc1ccccc1 the Potency was active: 28.2 µM. For CN(C)C[C@@H]1CN(c2ncccn2)C[C@H]1NS(=O)(=O)Cc1ccc(F)cc1, the “activity change, negative = cytotoxicity” value was inactive: -3.87%. In the case of Cc1c(F)cccc1NC(=O)N1C[C@@H](F)C[C@H]1C(=O)N1CCOCC1, the “activity change, negative = cytotoxicity” value is reported as inactive: -3.36%. In the case of CCOc1cccc(CN2CCCCC23Cc2ccccc2CNC3=O)c1 (stereo unspecified), the Potency is reported as inconclusive: 70.8 µM [inhibitor, single point]. With Cc1ccc(C)c(C(=O)N2CCCN(C)c3ccccc32)c1 the Potency was inconclusive: 50.1 µM [inhibitor, partial curve, poor fit]. With COc1cc(=O)n2c(c1C(=O)Nc1ccccc1C)CCCC2 the Potency was inconclusive: 70.8 µM [inhibitor, single point]. For O=C(Cn1nc2c(cc1=O)CCCC2)Nc1nc(-c2ccc3c(c2)OCO3)cs1, the Potency was inconclusive: 31.6 µM [inhibitor, single point]. With CCOC(=O)C1CCN(C(=O)CC(c2ccc3c(c2)OCO3)c2c[nH]c3ccccc23)CC1 (stereo unspecified) the Potency was inconclusive: 50.1 µM [inhibitor, partial curve, poor fit]. For Cc1ccc(-c2cnc([C@@H]3COCCN3CC3CC3)[nH]2)cc1, the “activity change, negative = cytotoxicity” value was inactive: -18.9% [at 174 µM]. For COc1ccc(CN(C(=O)c2ccco2)c2ccc(CC(=O)NCc3ccc(F)cc3)cc2)cc1, the Potency was active: 20 µM. With CC1(C(=O)NCC2CCCO2)CCCc2cnc(Nc3ccccc3)nc21 (stereo unspecified) the “activity change, negative = cytotoxicity” value was inactive: -4.02% [at 138 µM]. For O=C1CCC(C(=O)N(CC2CCN(Cc3ccccc3F)CC2)CC2CCCO2)=NN1 (stereo unspecified), the “activity change, negative = cytotoxicity” value was inactive: -1.94%. In the case of O=C(c1ccc[nH]1)N1CCCC(n2cc(-c3nc(-c4ccccc4)no3)nn2)C1 (stereo unspecified), the Potency is reported as inconclusive: 39.8 µM [inhibitor, partial curve, poor fit]. For O=C(NCc1ccc(-c2ccccc2)cc1)[C@H]1CCC[C@H](O)C1, the Potency was inconclusive: 50.1 µM [inhibitor, partial curve, poor fit]. With CSc1ccc(-c2cccc(CN3CCC(NC(=O)c4ccc(C(F)(F)F)cc4)CC3)c2)cc1 the Potency was inconclusive: 79.4 µM [inhibitor, partial curve, poor fit]. In the case of CC(C)Cn1ccc2c(NC(=O)CC[C@H]3NC(=O)c4ccccc4NC3=O)cccc21, the “activity change, negative = cytotoxicity” value is reported as inactive: -16.1%. In the case of CC(C)C1=NOC2(CCN(Cc3ccc(C(F)(F)F)cc3)CC2)C1, the Potency is reported as inconclusive: 31.6 µM [inhibitor, partial curve, poor fit]. For CS(=O)(=O)c1ccc(CN2C[C@H](O)C[C@H]2c2nc(-c3cnccn3)no2)cc1, the Potency was inconclusive: 25.1 µM [inhibitor, partial curve]. For CCn1c2c(c(=O)n1Cc1ccccc1)CCN(C(=O)c1scnc1C)C2, the Potency was inconclusive: 79.4 µM [inhibitor, partial curve]. For COc1ccc(CN2Cc3[nH]cnc3C[C@H]2c2nc(-c3ccc4ccccc4c3)no2)cc1, the Potency was active: 39.8 µM. In the case of OCC1(CCCc2ccccc2)CCCNC1 (stereo unspecified), the Potency is reported as inconclusive: 50.1 µM [inhibitor, partial curve, poor fit]. With O=C(COc1ccc(Cl)cc1)N1C[C@@H](CO)[C@H](c2ccccn2)C1 the “activity change, negative = cytotoxicity” value was inactive: -16.9%. With O=C(Nc1ccc2c(N3CCCCC3)ncnc2c1)C1CCC1 the Potency was inconclusive: 44.7 µM [inhibitor, partial curve, poor fit]. In the case of Cc1ccc(S(=O)(=O)N2CCCC(Cn3c(C)nc4cccnc43)C2)cc1 (stereo unspecified), the Potency is reported as inconclusive: 50.1 µM [inhibitor, partial curve, poor fit]. For COc1cc(CN2CCc3nc(N(C)C)[nH]c(=O)c3CC2)cc(OC)c1OC, the “activity change, negative = cytotoxicity” value was inactive: -22.7%. In the case of O=C(CC1CCCN(c2cn[nH]c(=O)c2)C1)NC1CCN(Cc2ccccc2)CC1 (stereo unspecified), the “activity change, negative = cytotoxicity” value is reported as inactive: -0.925%. In the case of COCCCNC(=O)C1CCCCN1Cc1ccc(-c2ccsc2)cc1 (stereo unspecified), the Potency is reported as inconclusive: 44.7 µM [inhibitor, partial curve, poor fit]. For O=C(NCCCc1ccccc1)c1cc2n(n1)CC(c1ccc3c(c1)OCO3)OC2 (stereo unspecified), the Potency was active: 28.2 µM. In the case of O=C1c2c(nc(COc3ccccc3)n2Cc2ccccc2)NCCN1CCOc1ccccc1, the Potency is reported as inconclusive: 31.6 µM [inhibitor, full curve]. In the case of Cc1cccc(-c2nc3cnccn3c2NCCC(=O)NCc2ccc(F)c(Cl)c2)c1, the Potency is reported as inconclusive: 70.8 µM [inhibitor, single point]. In the case of COc1ccc(-c2onc(C)c2C(=O)NCc2cccs2)cc1, the Potency is reported as inconclusive: 50.1 µM [inhibitor, partial curve, poor fit]. For COc1ccc(-c2cnc3[nH]cc(CC(=O)NCCc4ccccn4)c3c2)cc1, the Potency was inconclusive: 56.2 µM [inhibitor, partial curve, poor fit]. With Cc1nn(-c2ccccc2)c2c1C(C)N(C1CCCN(C(=O)c3cccnc3)C1)C2=O (stereo unspecified) the Potency was inconclusive: 50.1 µM [inhibitor, partial curve, poor fit]. With Cc1cc(C(=O)NCC2Cn3cccc3C(=O)N2CC(C)C)nn1C (stereo unspecified) the “activity change, negative = cytotoxicity” value was inactive: -3.99%. In the case of CCN1CC(c2ccccc2)CC2(CCN(S(=O)(=O)N(C)C)CC2)C1 (stereo unspecified), the “activity change, negative = cytotoxicity” value is reported as inactive: -14.7%. For Cc1cc(OC2CN(Cc3ccnn3C)C2)ccc1F, the Potency was inconclusive: 56.2 µM [inhibitor, partial curve, poor fit]. For O=c1cc(-c2ccncc2)oc2c(-c3cccc4[nH]ccc34)nccc12, the Potency was inconclusive: 3.55 µM [inhibitor, full curve, poor fit]. In the case of Cc1noc(-c2ccc3c(c2)OCO3)c1C(=O)NCCCc1ccccc1, the Potency is reported as inconclusive: 44.7 µM [inhibitor, partial curve, poor fit]. For O=C(NCc1cccc(F)c1)C1CCCCN1Cc1ccc(-c2cccs2)cc1 (stereo unspecified), the Potency was active: 28.2 µM. In the case of O=C(NCc1ccc(Cl)cc1)c1nc2sccn2c1-c1ccccc1, the Potency is reported as inconclusive: 70.8 µM [inhibitor, partial curve]. With COc1ccc(C2(C(=O)N3CCCCCNC(=O)CC3c3ccccc3)CC2)cc1 (stereo unspecified) the Potency was inconclusive: 70.8 µM [inhibitor, single point]. With O=C(Nc1cc(-c2ccncc2)nn1-c1ccccc1)c1ccc(F)cc1 the Potency was inconclusive: 70.8 µM [inhibitor, partial curve, poor fit].
